{"source": "paper PMC4336329", "about": "(PLoS ONE, 2015)", "note": "The whole screen tested about 310,000 compounds, of which about 14,000 (4.5%) showed an effect of 50% or more. The effect is printed as a negative number. The list shows a part of the results.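 Further: peak tail current of the secondary pulse compared with the same well before compound.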"}
{"biological_target": "human ether-à-go-go-related gene (hERG) potassium channel (human, UniProt Q12809)", "sequence (Q12809 whole entry, looked up)": "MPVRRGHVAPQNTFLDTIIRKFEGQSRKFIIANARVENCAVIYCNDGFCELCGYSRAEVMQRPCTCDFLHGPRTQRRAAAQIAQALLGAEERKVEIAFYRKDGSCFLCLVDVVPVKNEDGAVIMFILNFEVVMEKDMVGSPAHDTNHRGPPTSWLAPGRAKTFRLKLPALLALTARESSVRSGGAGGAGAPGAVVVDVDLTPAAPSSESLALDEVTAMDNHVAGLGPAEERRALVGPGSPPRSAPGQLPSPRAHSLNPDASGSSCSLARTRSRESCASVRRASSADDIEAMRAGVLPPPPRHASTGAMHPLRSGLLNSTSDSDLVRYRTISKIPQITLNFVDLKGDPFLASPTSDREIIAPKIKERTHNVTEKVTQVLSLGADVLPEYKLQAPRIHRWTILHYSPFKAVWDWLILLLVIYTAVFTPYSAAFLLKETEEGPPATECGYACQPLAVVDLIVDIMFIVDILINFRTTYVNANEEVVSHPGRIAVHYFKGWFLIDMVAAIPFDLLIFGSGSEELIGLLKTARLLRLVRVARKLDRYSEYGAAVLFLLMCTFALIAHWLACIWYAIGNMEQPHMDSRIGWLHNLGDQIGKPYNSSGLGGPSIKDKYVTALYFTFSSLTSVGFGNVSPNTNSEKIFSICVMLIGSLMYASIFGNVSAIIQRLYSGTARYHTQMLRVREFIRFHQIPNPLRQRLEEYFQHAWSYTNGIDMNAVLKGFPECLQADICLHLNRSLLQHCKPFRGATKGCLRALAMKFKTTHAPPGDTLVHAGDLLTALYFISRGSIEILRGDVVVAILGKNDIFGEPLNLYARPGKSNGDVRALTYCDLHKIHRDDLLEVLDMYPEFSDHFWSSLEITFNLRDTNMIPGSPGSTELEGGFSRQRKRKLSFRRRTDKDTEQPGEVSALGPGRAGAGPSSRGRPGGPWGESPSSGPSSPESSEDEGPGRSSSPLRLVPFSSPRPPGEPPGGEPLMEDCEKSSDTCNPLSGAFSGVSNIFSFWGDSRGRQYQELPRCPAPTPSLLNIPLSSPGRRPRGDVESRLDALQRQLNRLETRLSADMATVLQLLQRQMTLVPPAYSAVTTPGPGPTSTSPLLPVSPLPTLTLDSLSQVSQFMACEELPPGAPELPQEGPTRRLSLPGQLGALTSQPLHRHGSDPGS", "assay": "primary screen, population patch clamp on CHO cells stably expressing hERG", "units": {"hERG current change (%, negative = inhibition) at 10uM": "%"}}
{"smiles": "COc1ccc(C)cc1NC(=O)CCNS(=O)(=O)c1cccc(C(F)(F)F)c1", "hERG current change (%, negative = inhibition) at 10uM": -27.6}
{"smiles": "COc1cc(C(=O)Nc2cccc(-c3nc4cc(C)ccc4o3)c2)cc(OC)c1OC", "hERG current change (%, negative = inhibition) at 10uM": 6.91}
{"smiles": "CCc1c(C)c2ccc(OCC(=O)N(C)C)c(C)c2oc1=O", "hERG current change (%, negative = inhibition) at 10uM": -17.2}
{"smiles": "COc1ccc(CNc2nc3ccccc3n2C)c(OC)c1", "hERG current change (%, negative = inhibition) at 10uM": -25}
{"smiles": "COc1ccc(C(=O)CSc2nnc(-c3ccco3)n2C)cc1", "hERG current change (%, negative = inhibition) at 10uM": -12.1}
{"smiles": "CN(NC1OC(=O)c2ccccc21)c1ccc(C(F)(F)F)cc1[N+](=O)[O-]", "note": "(stereo not shown)", "hERG current change (%, negative = inhibition) at 10uM": 34.2}
{"smiles": "CC(=O)Nc1ccc(NC(=O)c2cc(-c3cc(C)cc(C)c3O)n[nH]2)cc1", "hERG current change (%, negative = inhibition) at 10uM": 31.6}
{"smiles": "COc1ccc(CN(CC(=O)NC(C)C)C(=O)CCC(=O)Nc2nccs2)cc1", "hERG current change (%, negative = inhibition) at 10uM": 9.18}
{"smiles": "NC(=S)Nc1cc2ccccc2c2ccccc12", "hERG current change (%, negative = inhibition) at 10uM": 6.65}
{"smiles": "COc1ccc(S(=O)(=O)N2CCCC2C(=O)n2nc(C)cc2C)cc1", "note": "(stereo not shown)", "hERG current change (%, negative = inhibition) at 10uM": 14.1}
{"smiles": "CC(C)Cc1nc(N2CCOCC2)c(C#N)c2c1COC(C)(C)C2", "hERG current change (%, negative = inhibition) at 10uM": -7.61}
{"smiles": "COCCNC(=O)C(=O)Nc1cc2c3c(c1)CC(=O)N3CCC2", "hERG current change (%, negative = inhibition) at 10uM": 19.4}
{"smiles": "COc1ccc(CNC(=O)Nc2cccc3ccccc23)cc1", "hERG current change (%, negative = inhibition) at 10uM": 4.84}
{"smiles": "CCn1cc(/C=C/C(=O)NCc2c(C)nn(C)c2C)cn1", "hERG current change (%, negative = inhibition) at 10uM": -2.66}
{"smiles": "COCCN(C(=O)c1ccccc1F)c1nnc(-c2ccc(OC)cc2)s1", "hERG current change (%, negative = inhibition) at 10uM": -3.34}
{"smiles": "Cc1ccc(CN2CCNC(=O)C2CC(=O)NC2CCCCCC2)o1", "note": "(stereo not shown)", "hERG current change (%, negative = inhibition) at 10uM": 9.02}
{"smiles": "COc1ccc(-n2nc(C(=O)NCc3cc(OC)ccc3OC)c3c4ccccc4n(C)c3c2=O)cc1", "hERG current change (%, negative = inhibition) at 10uM": 20.3}
{"smiles": "O=C(CSc1nnc(-c2cc3ccccc3cc2O)n1Cc1ccco1)c1ccc(F)cc1", "hERG current change (%, negative = inhibition) at 10uM": -13.6}
{"smiles": "O=C(COc1ccccc1Cl)N1CCCCCCC1", "hERG current change (%, negative = inhibition) at 10uM": -1.53}
{"smiles": "Clc1ccc(-c2nnc(-c3ccccc3)nc2-c2c[nH]c3ccccc23)cc1", "hERG current change (%, negative = inhibition) at 10uM": 29.7}
{"smiles": "COC(=O)c1ccc(CNC(=O)CCNC(=O)c2ccco2)cc1", "hERG current change (%, negative = inhibition) at 10uM": -1.99}
{"smiles": "COc1ccccc1NC(=O)N1CCCC1", "hERG current change (%, negative = inhibition) at 10uM": 16.6}
{"smiles": "COc1cc(C(=O)Nc2nccs2)ccc1OCc1c(C)noc1C", "hERG current change (%, negative = inhibition) at 10uM": 15.3}
{"smiles": "O=C(CSc1nc2ccccc2[nH]1)NCc1ccc(F)cc1", "hERG current change (%, negative = inhibition) at 10uM": -9.15}
{"smiles": "CN(CC(=O)Nc1ccc(Cl)c(C(F)(F)F)c1)C(=O)C1CC(=O)N(C2CCCC2)C1", "note": "(stereo not shown)", "hERG current change (%, negative = inhibition) at 10uM": -28.9}
